Here are results for 84 compounds from PubChem BioAssay AID1346428 (National Center for Advancing Translational Sciences (NCATS), 2018).

Molecules are shown by their SMILES. Where “and” joins values, the source holds several entries; their conditions need not be identical. Equal entries are not always repeated. About 1,200 (2.5%) of roughly 48,000 compounds were called active. Roughly 2% stayed inconclusive and do not appear here.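 The calls were made as follows: active = activation of at least 60% and not above a set upper limit (about 1 call in 100 departs from these limits); inconclusive = activation of 40% to 60%, or above that upper limit; inactive = activation under 40%.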 The list shows a part of the results.

UniProt O75388, sequence (O75388 whole entry, looked up): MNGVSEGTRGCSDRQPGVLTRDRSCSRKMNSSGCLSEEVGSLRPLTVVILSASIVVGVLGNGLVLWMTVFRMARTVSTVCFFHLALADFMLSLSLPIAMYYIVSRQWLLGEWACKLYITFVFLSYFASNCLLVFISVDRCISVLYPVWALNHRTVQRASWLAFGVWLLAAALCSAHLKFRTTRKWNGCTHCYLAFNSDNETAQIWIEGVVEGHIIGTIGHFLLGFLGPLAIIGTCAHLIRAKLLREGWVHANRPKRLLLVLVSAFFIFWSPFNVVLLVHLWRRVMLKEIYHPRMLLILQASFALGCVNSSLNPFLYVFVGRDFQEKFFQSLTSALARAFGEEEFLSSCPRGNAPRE

The target in the assay is Probable G-protein coupled receptor 32 (Homo sapiens) (UniProt O75388). In words: qHTS for Agonists of Human Resolvin D1 Receptor DRV1. Particulars: CHO-K1 GPR32 beta-arrestin PathHunter luminescence, 90 min; at 76.9 µM; active compounds read high; zero percent set by DMSO-only wells. The method, boiled down:
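Using DMSO wells as EC0, agonist-induced signal was taken as chemiluminescence from beta-Gal reconstituted upon beta-arrestin recruitment to GPR32 in CHO-K1 cells after 90 min compound treatment.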
A general note: In qHTS, concentration-response curves come from the screen itself.
In the case of `COc1cc(-c2ccno2)ccc1S(=O)(=O)N1CCN(c2cc(C)ccc2C)CC1`, the activation was inactive: -17.5%.
As for `COCC(=O)Oc1c(Sc2ccc(C)cc2)c(C)nn1C(C)(C)C`, the activation is inactive: 37.4%.
To `CCO[C@H](Cc1ccc(OCCc2ccc(OS(C)(=O)=O)cc2)cc1)C(=O)O` belongs active: 75.6%.
The figure for `Cc1ccc(NC(=O)CC(C)S(=O)(=O)c2ccc3c(c2)NC(=O)CO3)c(C)c1` (centres undefined) is active: 73.9%; for `Cc1cc(C)cc(Oc2nc3c(C)cccn3c(=O)c2/C=C(\C#N)c2nc3ccccc3[nH]2)c1` it is inactive: 12.8%.
Take `COc1cccc(N2CC(NC(=O)C(c3ccccc3)c3ccccc3)CC2=O)c1` (centres undefined): the activation was inactive: -14.9%.
The figure for `c1cnc2cc3c(cc2n1)C1CNCC3C1` is inactive: 4.53%; for `COc1ccccc1/C=C/c1nc(C#N)c(N2CCCCC2)o1` it is inactive: -30.1%; for `Cc1ccc2nc(-c3ccsc3)c(Nc3ccccc3C)n2c1` it is inactive: -30.5%.
The figure for `COCCNC(=O)Cc1ccc(NC(=O)N2CCCCc3ccccc32)cc1` is inactive: -0.559%.
To `O=C(NCc1ccc(F)cc1)c1ccc(CSCc2cccc(Cl)c2)o1` belongs inactive: 22.1%; to `O=C1c2ccccc2C(=O)C1(c1ccccc1)N1CCN(c2cccc(Cl)c2)CC1`, inactive: -19.8%; to `Cc1ccc(N2CC(NC(=O)/C=C\c3ccc4c(c3)OCO4)CC2=O)cc1C` (centres undefined), inactive: -4.93%.
Regarding `Cc1ccc(-c2cc(C(F)(F)F)n3nc(C(=O)Nc4ccc(Cl)cc4Cl)cc3n2)cc1`, the activation was inactive: -0.257%.
As for `Cc1ccc(NC(=O)CSc2ncc3c(n2)-c2ccccc2N(Cc2cccc(F)c2)S3(=O)=O)cc1F`, the activation is inactive: -8.54%.
To `Cn1cc(CN(C(=O)Nc2ccc(Cl)c(Cl)c2)C2CCCCC2)c2ccccc21` belongs inactive: -5.88%; to `COCCNC(=O)c1cnn(-c2ccc(C)cc2C)c1C1CCN(C(=O)OC(C)(C)C)CC1`, inactive: -1.26%; to `COc1ccc(-n2c(/C=C/c3ccccc3F)nc3cc(OC)c(OC)cc3c2=O)cc1Cl`, inactive: -20.1%.
The figure for `COC(=O)c1scc(-c2ccccc2)c1S(=O)(=O)Nc1ccccc1` is inactive: -0.985%.
To `Cc1ccccc1Cn1c(C(=O)O)c(CNCc2cccc(F)c2)c2ccccc21` belongs inactive: -13.7%; to `COc1ccccc1N1CCN(C(=O)Cn2ncc3c([nH]c4ccccc43)c2=O)CC1`, inactive: -20.5%.
With `CCOC(=O)c1ccccc1NC(=O)Cn1c(=O)n(Cc2nc(-c3ccccc3)no2)c(=O)c2ccccc21`, the activation is inactive: -12.2%.
For the compound `Cc1ccc(CNC(=O)CCCCn2c(=O)c3ccccc3n(Cc3c(C)cc(C)cc3C)c2=O)cc1`, the activation is inactive: 1.54%.
To `COc1cccc(NC(=O)CSC2=Nc3ccccc3C3=NC(CC(=O)NCCc4ccccc4)C(=O)N23)c1` (centres undefined) belongs inactive: -2.47%.
To `CCOCCCNC(=O)NC(C)c1c(-n2cccc2)sc2c1CCN(CC)C2` (centres undefined) belongs inactive: -7.67%; to `COc1ccc(OC)c(S(=O)(=O)N2CCC(c3ccncc3)CC2)c1`, inactive: 3.09%.
To `C[C@]12C[C@H](O)[C@H]3[C@@H](CCC4=CC(=O)CC[C@@]43C)[C@@H]1CC[C@@H]2C(=O)CO` belongs inactive: -43.1% and inactive: -5.05%; to `CCc1ccc(C(=O)c2cn(CC(=O)NCCc3ccc(OC)c(OC)c3)c3nc(C)ccc3c2=O)cc1`, inactive: 23%.
In the case of `COc1cccc(NC(=O)CSC2=Nc3ccccc3N=C(c3ccc(F)cc3)C2)c1`, the activation was inactive: -40.9%.
To `O=C(c1ccc2c(c1)N(Cc1ccccc1F)C(=O)c1ccccc1S2(=O)=O)N1CCCCC1` belongs inactive: -9.51%; to `CCc1ccc(-n2c(SCc3ccccc3F)nc3[nH]ncc3c2=O)cc1`, inactive: -44.9%.
In the case of `O=C(CCc1nc(CN2CCN(S(=O)(=O)c3ccc(F)cc3)CC2)no1)N1CCCCC1`, the activation was inactive: 4.32%.
As for `O=C1c2[nH]nc(-c3ccccc3O)c2C(c2ccc(Cl)cc2)N1Cc1ccco1` (centres undefined), the activation was inactive: 30.6%.
The figure for `COc1ccccc1NC(=O)Cn1c(=O)n(-c2cccc(C(C)=O)c2)c(=O)c2c3c(sc21)CN(C(C)=O)CC3` is inactive: -0.0168%; for `O=C(CCC1N=C2c3ccccc3N=C(SCC(=O)Nc3ccccc3F)N2C1=O)NCc1ccccc1` (centres undefined) it is inactive: -13.9%; for `Cc1ccc(C2C=C(c3ccc(Cl)cc3)Nc3nc(NS(=O)(=O)c4ccccc4)nn32)cc1` (centres undefined) it is active: 73%.
To `CCN1CCN(C(=O)c2cnn(-c3ccc(F)cc3)c2-n2cccc2)CC1` belongs inactive: -1.17%.
For the compound `O=C(NC1CCCCC1)c1cc(Nc2cccc(C(F)(F)F)c2)nc2ccccc12`, the activation is inactive: 7.13%.
Regarding `COc1cc(NC(=O)c2noc3c2CSc2ccccc2-3)cc(OC)c1OC`, the activation was inactive: -16%.
To `Cc1ccn2c(=O)cc(CSc3nnc(NC(=O)c4ccccc4Cl)s3)nc2c1` belongs inactive: -1.49%; to `COc1cc(C(=O)Nc2nc3nc(-c4ccccc4)cc(=O)n3[nH]2)cc(OC)c1OC`, inactive: 1.54%.
The figure for `Cc1ccc(SCc2nc(-c3ccc(C(=O)NCc4ccc(Cl)cc4)cc3)oc2C)cc1` is inactive: -16.3%.
To `Cc1ccn2c(Nc3ccccc3C)c(-c3ccccn3)nc2c1` belongs inactive: -94.9%; to `COCCCNC(=O)C1CCCN(C(=O)c2cnn(-c3ccc(F)cc3)c2-n2cccc2)C1` (centres undefined), inactive: 0.403%; to `Cc1cc(C)c(CSc2nnc(C)n3c2cc2occc23)c(C)c1`, inactive: -2.09%.
As to `CCN(Cc1ccccc1)C(=O)c1nc(-c2cccc(F)c2)n2c1CCCCC2`, the activation is inactive: -24.7%.
Consider `COc1ccc(CNC(=O)c2cc3c(=O)[nH]c4ccccc4c3s2)cc1`, for which the activation was inactive: 13.4%.
The figure for `Cc1cccc(N2CCN(C(=O)NCc3noc4ccccc34)CC2)c1C` is inactive: -24.8%.
The figure for `CCOC(=O)c1ccccc1NC(=O)CCOc1ccccc1` is inactive: -21.6%.
To `O=C(CCN1CCN(CCO)CC1)N1c2ccccc2Sc2ccc(C(F)(F)F)cc21` belongs inactive: -5.53%.
`OCCCc1nc2ccccc2n1CCCCOc1ccccc1`: the activation was inactive: 12.5%.
To `Cc1cccc(-c2noc(CN(C(=O)COc3ccc(Br)cc3C)C(C)C)n2)c1` belongs inactive: -2.53%.
In the case of `COc1ccccc1CNC(=O)C(=O)NCC(c1ccco1)S(=O)(=O)c1cccs1` (centres undefined), the activation was inactive: -13.6%.
To `O=C(NC1CCCCC1)c1cc2c(Cl)nc3ccccc3c2s1` belongs inactive: 4.14%; to `CCOc1ccc(NC(=O)C(NS(=O)(=O)c2cccc3nsnc23)c2ccccc2)cc1` (centres undefined), inactive: -37.5%.
On to `COc1ccc(Cl)cc1NC(=O)Cn1c(=O)n(Cc2ccco2)c(=O)c2cccnc21`, for which the activation is inactive: -4.6%.
Take `CCn1cc(C(=O)N2CCN(c3cc(C)ccc3C)CC2)c(=O)c2cc(S(=O)(=O)N3CCOCC3)ccc21`: the activation was inactive: -1.9%.
Take `CCn1c(=O)n(CC)c2cc(N3CCCCC3)c(NC(=O)Nc3cc(C)cc(C)c3)cc21`: the activation is inactive: -20%.
The figure for `CCOC(=O)c1c(N)n(-c2cccc(OC)c2)c2nc3ccccc3nc12` is inactive: 1.52%; for `COc1ccc(C(=O)NCCn2cc(SCC(=O)Nc3cccc(C)c3)c3ccccc32)cc1` it is inactive: 39.5%.
To `CCOC(=O)C1CCN(C(=O)Cn2c(=O)cc(C)c3c(C)nn(C)c32)CC1` belongs inactive: 42%; to `Cc1oc2ncn(CC(C)C)c(=O)c2c1C(=O)N1CCN(c2cccc(C(F)(F)F)c2)CC1`, inactive: -4.74%.
To `COCCc1nn2c(=O)cc(COC(=O)c3ccc(OC)c(OC)c3)nc2s1` belongs inactive: -9.96%; to `Cc1ccc(C)n1-c1c(C(=O)NCCC(C)C)sc2ncccc12`, inactive: 2.98%.
With `Cc1cccc(-n2ncc3c(Nc4ccc(Oc5ccc(Cl)cc5)cc4)ncnc32)c1`, the activation was inactive: 48%.
As to `COc1cc(-c2nc3nc[nH]n3c2Nc2ccc(C(C)C)cc2)ccc1O`, the activation was inactive: -19%.
The figure for `CCc1nn(-c2ccccc2)c2nc(-c3cccc(OC)c3)c3cc(OC)c(OC)cc3c12` is inactive: -17.3%; for `COc1cccc(-n2c(=O)c3c(C)c(C(=O)N(C)C)sc3n(Cc3ccc(F)cc3Cl)c2=O)c1` it is inactive: -14%; for `O=C(CCC1N=C2c3ccccc3N=C(SCc3ccccc3F)N2C1=O)NC1CCCCC1` (centres undefined) it is inactive: -4.01%.
The figure for `CCOc1cc(C2C(C(=O)OC)=C(C)NC3=C2C(=O)c2ccccc23)cc(Cl)c1O` (centres undefined) is inactive: -88.6%.
Turning to `Cc1ccc(-n2ncc3c(NCCCN4CCOCC4)ncnc32)cc1`, the activation was inactive: -12%.
To `COc1ccc(NC(=O)CN(Cc2ccccc2)S(=O)(=O)c2ccc(C)cc2)cc1Cl` belongs inactive: -5.33%.
To `Fc1ccc(-c2nc(Nc3cccc(Cl)c3)nc3c2COc2ccccc2-3)cc1` belongs inactive: -6.12%; to `CCn1c2ccccc2c2nnc(N3CCN(c4cc(C)ccc4C)CC3)nc21`, inactive: -17.5%; to `COc1ccc(N2CCN(S(=O)(=O)c3ccc4c(c3)CC(C)N4C(C)=O)CC2)cc1` (centres undefined), inactive: 12.2%.
The figure for `CCOc1ccccc1NC(=O)c1cc2c(Cl)nc3ccccc3c2s1` is inactive: 17.7%; for `COc1ccc(NC(=O)C2Cc3ccccc3N2C(=O)c2ccccc2)c(OC)c1` (centres undefined) it is inactive: -18.5%.
For the compound `COc1ccc(N(Cc2cccs2)C(=O)COc2cccc(Cl)c2)cc1`, the activation was inactive: -17.8%.
To `Cc1ccc(Cl)cc1NC(=O)c1oc2c(c1C)-c1[nH]ncc1CC2` belongs inactive: 5.94%; to `CCN(CCCNC(=O)c1c(C)oc2ncn(CC(C)C)c(=O)c12)Cc1ccccc1`, inactive: -3.69%.
To `CC1=C(C(=O)OC2CCCCCC2)C(c2c(F)cccc2Cl)CC(=O)N1` (centres undefined) belongs inactive: 13.6%; to `CCOC(=O)c1c(Nc2ccc(C)cc2)nnc(-c2ccccc2)c1-c1ccccc1`, inactive: 20.3%.
The figure for `O=C1CC2(CCCC2)CC(=O)N1` is active: 65.4%.
With `Cn1c(=O)n(-c2ccc(F)c(Cl)c2)c(=O)c2sc3ccccc3c21`, the activation was inactive: -3.65%.
